The results in this text go back to the supplement of paper PMC8047034.

Structures can show the parent of a compound that is named as a salt. Some of the results follow. Many values rest on one well or one pass, so single values are uncertain.

The test system of test [1] is OVCAR4. As to the kind of experiment: log2 surviving fraction (library drug vs vehicle, or drug + carboplatin vs carboplatin alone; relative to plate median); ovarian cancer lines: OVCAR4 is platinum-sensitive and Ov4Carbo platinum-resistant; higher = more cell survival. To be noted: library drug concentration 10 µM, 7 days.
Test [2] has as its system Ov4Carbo. The description is as above. Particulars: library drug concentration 10 µM, 7 days.

As for `OC(c1ccccc1)(c1ccccc1)C1CCNCC1` [Azacyclonol], the log2 surviving fraction in test [1] (carboplatin co-treatment 0 µM) is -0.691; in test [1] (carboplatin co-treatment 5 µM), -0.355; in test [2] (carboplatin co-treatment 0 µM) it was -1.58; in test [2] (carboplatin co-treatment 5 µM), -1.25.

In the case of `NNC(=O)c1ccncc1.Nc1ccc(C(=O)O)c(O)c1` [Pasiniazid], the log2 surviving fraction in test [1] (carboplatin co-treatment 0 µM) is -0.333; in test [1] (carboplatin co-treatment 5 µM), 1.64; in test [2] (carboplatin co-treatment 0 µM), 0.209; in test [2] (carboplatin co-treatment 5 µM), -1.95.

As to `Nc1ncnc2c1ncn2[C@@H]1O[C@H](CO)[C@@H](O)[C@@H]1O` [Vidarabine (Vira-A)], the log2 surviving fraction in test [1] (carboplatin co-treatment 0 µM) is 0.213; in test [1] (carboplatin co-treatment 5 µM), -0.977; in test [2] (carboplatin co-treatment 0 µM) it was 0.147; in test [2] (carboplatin co-treatment 5 µM), -0.0463.

In the case of `CC1(C)S[C@@H]2[C@H](NC(=O)[C@H](NC(=O)N3CCNC3=O)c3ccccc3)C(=O)N2[C@H]1C(=O)O` [Azlocillin sodium salt], the log2 surviving fraction in test [1] (carboplatin co-treatment 0 µM) is 0.335; in test [1] (carboplatin co-treatment 5 µM), -0.456; in test [2] (carboplatin co-treatment 0 µM), -0.409; in test [2] (carboplatin co-treatment 5 µM), -0.385.

As for `CC(C(=O)O)c1cccc(Oc2ccccc2)c1` (configuration not stated) [Fenoprofen calcium hydrate], the log2 surviving fraction in test [1] (carboplatin co-treatment 0 µM) is 0.695; in test [1] (carboplatin co-treatment 5 µM), 0.139; in test [2] (carboplatin co-treatment 0 µM), -0.614; in test [2] (carboplatin co-treatment 5 µM) it was -0.00879.

Consider `COc1cc(/C=C/C(=O)N2CCN(CC(=O)N3CCCC3)CC2)cc(OC)c1OC` [Cinepazide maleate], for which the log2 surviving fraction in test [1] (carboplatin co-treatment 0 µM) is 0.566; in test [1] (carboplatin co-treatment 5 µM), -0.315; in test [2] (carboplatin co-treatment 0 µM), -0.178; in test [2] (carboplatin co-treatment 5 µM), 0.254.

For `CC(C)[C@H]1CC[C@H](C(=O)N[C@H](Cc2ccccc2)C(=O)O)CC1` [Nateglinide (Starlix)], the log2 surviving fraction in test [1] (carboplatin co-treatment 0 µM) came to 0.0273; in test [1] (carboplatin co-treatment 5 µM) it was 0.415; in test [2] (carboplatin co-treatment 0 µM), 0.244; in test [2] (carboplatin co-treatment 5 µM), 0.138.

As to `OC1(c2ccc(Cl)c(C(F)(F)F)c2)CCN(CCCC(c2ccc(F)cc2)c2ccc(F)cc2)CC1` [Penfluridol], the log2 surviving fraction is -9.72 in test [1] (carboplatin co-treatment 0 µM), -7.61 in test [1] (carboplatin co-treatment 5 µM), -8.11 in test [2] (carboplatin co-treatment 0 µM) and -7.62 in test [2] (carboplatin co-treatment 5 µM).

Turning to `NCC1(CC(=O)O)CCCCC1` [Gabapentin (Neurontin)], the log2 surviving fraction in test [1] (carboplatin co-treatment 0 µM) worked out at 0.437; in test [1] (carboplatin co-treatment 5 µM), 0.134; in test [2] (carboplatin co-treatment 0 µM), 0.172; in test [2] (carboplatin co-treatment 5 µM), 0.337.

In the case of `N[C@@H](Cc1ccc(O)c(O)c1)C(=O)O` [Levodopa (Sinemet)], the log2 surviving fraction in test [1] (carboplatin co-treatment 0 µM) is -2.43; in test [1] (carboplatin co-treatment 5 µM) it was 0.353; in test [2] (carboplatin co-treatment 0 µM) it was -0.223; in test [2] (carboplatin co-treatment 5 µM), 0.296.

For `COc1ccc2cc1Oc1ccc(cc1)C[C@H]1c3c(cc4c(c3Oc3cc5c(cc3OC)CCN(C)[C@@H]5C2)OCO4)CCN1C` [Cepharanthine], the log2 surviving fraction in test [1] (carboplatin co-treatment 0 µM) is -6.59; in test [1] (carboplatin co-treatment 5 µM), -5.72; in test [2] (carboplatin co-treatment 0 µM), -6.47; in test [2] (carboplatin co-treatment 5 µM) it was -6.54.

For `C[C@@](Cc1ccc(O)c(O)c1)(NN)C(=O)O` [Carbidopa], the log2 surviving fraction in test [1] (carboplatin co-treatment 0 µM) was 0.354; in test [1] (carboplatin co-treatment 5 µM), -0.395; in test [2] (carboplatin co-treatment 0 µM) it was 0.528; in test [2] (carboplatin co-treatment 5 µM), 0.386.

For the compound `NC1CCN(c2c(F)cc3c(=O)c(C(=O)O)cn(C4CC4)c3c2Cl)C1` (configuration not stated) [Clinafoxacin HCl], the log2 surviving fraction is 0.407 in test [1] (carboplatin co-treatment 0 µM), 0.324 in test [1] (carboplatin co-treatment 5 µM), 0.571 in test [2] (carboplatin co-treatment 0 µM) and -0.163 in test [2] (carboplatin co-treatment 5 µM).

In the case of `Nc1c(CC(=O)O)cccc1C(=O)c1ccccc1` [Amfenac Sodium (monohydrate)], the log2 surviving fraction in test [1] (carboplatin co-treatment 0 µM) is -0.371; in test [1] (carboplatin co-treatment 5 µM), 0.577; in test [2] (carboplatin co-treatment 0 µM) it was 0.152; in test [2] (carboplatin co-treatment 5 µM), 0.804.

In the case of `CCCCCCCCCCCCCCSCC(=O)OC[C@H](COP(=O)([O-])OCC[N+](C)(C)C)OC(=O)CSCCCCCCCCCCCCCC` [Phosphatidylcholine], the log2 surviving fraction in test [1] (carboplatin co-treatment 0 µM) is -1.04; in test [1] (carboplatin co-treatment 5 µM) it was 0.752; in test [2] (carboplatin co-treatment 0 µM), 0.0855; in test [2] (carboplatin co-treatment 5 µM), 0.565.

Turning to `Nc1[nH]cnc2ncnc1-2` [Adenine hydrochloride], the log2 surviving fraction was 1.23 in test [1] (carboplatin co-treatment 0 µM), 1.73 in test [1] (carboplatin co-treatment 5 µM), 1.1 in test [2] (carboplatin co-treatment 0 µM) and -0.0139 in test [2] (carboplatin co-treatment 5 µM).

Regarding `CC[C@H](C)[C@H](N)C1=N[C@H](C(=O)N[C@@H](CC(C)C)C(=O)N[C@H](CCC(=O)[O-])C(=O)N[C@H](C(=O)N[C@H]2CCCCNC(=O)[C@H](CC(N)=O)NC(=O)[C@@H](CC(=O)[O-])NC(=O)[C@H](Cc3cnc[nH]3)NC(=O)[C@@H](Cc3ccccc3)NC(=O)[C@H]([C@@H](C)CC)NC(=O)[C@@H](CCCN)NC2=O)[C@@H](C)CC)CS1.[Zn+2]` [Bacitracin zinc], the log2 surviving fraction in test [1] (carboplatin co-treatment 0 µM) was 0.676; in test [1] (carboplatin co-treatment 5 µM), -0.935; in test [2] (carboplatin co-treatment 0 µM), -4.04; in test [2] (carboplatin co-treatment 5 µM) it was 0.724.

As to `OC[C@H]1OC(O)[C@H](O)[C@@H](O)[C@@H]1O` (stereo partly drawn) [Dextrose (D-glucose)], the log2 surviving fraction came out at 0.421 in test [1] (carboplatin co-treatment 0 µM), 0.856 in test [1] (carboplatin co-treatment 5 µM), 0.712 in test [2] (carboplatin co-treatment 0 µM) and 0.531 in test [2] (carboplatin co-treatment 5 µM).

With `C[C@H]1NC(=O)NC1=O` [Methylhydantoin-5-(D)], the log2 surviving fraction in test [1] (carboplatin co-treatment 0 µM) worked out at 1.1; in test [1] (carboplatin co-treatment 5 µM), 0.0128; in test [2] (carboplatin co-treatment 0 µM) it was 0.419; in test [2] (carboplatin co-treatment 5 µM), 1.17.

Take `CC(C)CN(C[C@@H](O)[C@H](Cc1ccccc1)NC(=O)O[C@H]1CO[C@H]2OCC[C@H]21)S(=O)(=O)c1ccc(N)cc1` [Darunavir Ethanolate (Prezista)]: the log2 surviving fraction in test [1] (carboplatin co-treatment 0 µM) came to 0.829; in test [1] (carboplatin co-treatment 5 µM), 0.0925; in test [2] (carboplatin co-treatment 0 µM), 0.578; in test [2] (carboplatin co-treatment 5 µM), 0.0192.

`CCN(Cc1ccncc1)C(=O)C(CO)c1ccccc1` (configuration not stated) [Tropicamide]: the log2 surviving fraction is 1.14 in test [1] (carboplatin co-treatment 0 µM), 1.48 in test [1] (carboplatin co-treatment 5 µM), 0.622 in test [2] (carboplatin co-treatment 0 µM) and -0.176 in test [2] (carboplatin co-treatment 5 µM).

With `CCN(CC)CCOc1ccc(C(=C(Cl)c2ccccc2)c2ccccc2)cc1` [Clomifene citrate (Serophene)], the log2 surviving fraction is -3.34 in test [1] (carboplatin co-treatment 0 µM), -4.54 in test [1] (carboplatin co-treatment 5 µM), -3.92 in test [2] (carboplatin co-treatment 0 µM) and -3.31 in test [2] (carboplatin co-treatment 5 µM).

With `CCCCCCCCCC(=O)N[C@@H](Cc1c[nH]c2ccccc12)C(=O)N[C@H](CC(N)=O)C(=O)N[C@@H](CC(=O)O)C(=O)N[C@@H]1C(=O)NCC(=O)N[C@@H](CCCN)C(=O)N[C@@H](CC(=O)O)C(=O)N[C@H](C)C(=O)N[C@@H](CC(=O)O)C(=O)NCC(=O)N[C@H](CO)C(=O)N[C@@H]([C@H](C)CC(=O)O)C(=O)N[C@@H](CC(=O)c2ccccc2N)C(=O)O[C@@H]1C` [Daptomycin], the log2 surviving fraction is -1.67 in test [1] (carboplatin co-treatment 0 µM), 0.959 in test [1] (carboplatin co-treatment 5 µM), 0.127 in test [2] (carboplatin co-treatment 0 µM) and -0.546 in test [2] (carboplatin co-treatment 5 µM).
